Reference: the RNAGym collection of RNA variant scans (doi:10.7554/elife.90254)
The source gives no read counts; variants with many changes may rest on few reads.

B1: LINE1-mini (parent)
chain: GGCAGAGCUCAACACAGCGUGGCAAAGUGGCUGUGGCUAGACUGCC

Variants of: B1
Test: self-cleavage, relative activity (ratio to wild type); higher = more cleavage; in vitro, sequencing; the parent is a self-cleaving ribozyme

Row | Variant | self-cleavage
1 | C3U C15A G30U C31A | 0.08
2 | C3U G7C G30U G33C C42U G44U | 0.15
3 | C3U G7C C8U A24U G36C G40A | 0.22
4 | C3U C13G A14G | 0.07
5 | C3U C15A G17A | 0.05
6 | C3U G5A G21C G35C | 0.15
7 | C3U C18A G30U U38G | 0.03
8 | C3U G5U C42A | 0.08
9 | C3U C10A G36A C37G | 0.02
10 | C3U G19A G33U A39C U43A | 0.03
11 | C3U U9C G36A A41U | 0.05
12 | C3U C10U A26C G27A G35U G36A | 0
13 | C3U G29A G40C | 0.1
14 | C3U G19C G44A | 0.28
15 | C3U C8G C10A U32C | 0.02
16 | C3U C15U A16G U32A C46A | 0.02
17 | C3U C10A G30A C46A | 0.03
18 | C3U C10G A12G | 0.01
19 | C3U G29U G30C | 0.12
20 | C3U U9A A12U | 0.02
21 | C3U G22A G33U | 0.1
22 | C3U C18G A41C | 0.04
23 | C3U C10A C31A U34G C37A | 0.01
24 | C3U C10G A24U A39U A41U | 0.06

Row | Variant | self-cleavage
25 | C3U G21A C31A | 0.04
26 | C3U C8G C23U A26U | 0.66
27 | C3U C18G U38C C42A | 0.04
28 | C3U G7C G29U | 0.07
29 | C3U C18A G22A C23G | 0.01
30 | C3U C13G G33U | 0.05
31 | C3U G5U C10G A11C A16G A39U | 0.01
32 | C3U G17C G30U | 0.08
33 | C3U G17C G22U C31U | 0.01
34 | C3U G17C U34G | 0.02
35 | C3U G7A A25G | 0.05
36 | C3U G7A C42U | 0.07
37 | C3U G17C G19A | 0.22
38 | C3U G27C U28C U32C U34C C46A | 0.01
39 | C3U C8G G44C | 0.02
40 | C3U G7C G19A | 0.07
41 | C3U G7C A12G G19U | 0.01
42 | C3U C15U G17C C18A G33A G36A | 0.02
43 | C3U G29C G30A G36C C42A | 0.04
44 | C3U G40U C46U | 0.07
45 | C3U C13A U20C G40U | 0.05
46 | C3U G7A C15A G27C U32G U34A | 0.04
47 | C3U G36A U38A | 0.34
48 | C3U C13U G30A A39C | 0.07

Row | Variant | self-cleavage
49 | C3U G7C G44A | 0.05
50 | C3U G7A C8U A16G A25C G44A | 0.02
51 | C3U G5U G7A C10A A16U A39C C46A | 0.03
52 | C3U C13U A16U C31G | 0.06
53 | C3U C8G G35A | 0.12
54 | C3U G44U C45G | 0.11
55 | C3U G7C A12U | 0.09
56 | C3U G21U C46U | 0.15
57 | C3U G22A C46U | 0.07
58 | C3U G21C G30C | 1.19
59 | C3U C10G G27A | 0.07
60 | C3U G5A U20A G21A C46A | 0.88
61 | C3U C18A G30C | 1.5
62 | C3U C10U G19U | 0.12
63 | C3U C8G C10A C45U | 0.01
64 | C3U G7C C15U | 0.07
65 | C3U G27U U38G | 0.1
66 | C3U G17A C23U G33C | 0.02
67 | C3U G22U A26U U38A | 0.19
68 | C3U C10U A14U C31A | 0.06
69 | C3U G5U A41C | 0.04
70 | C3U G27A G29A C46U | 0.61
71 | C3U G7U G33U G40A U43C | 0.03
72 | C3U C10U U34C | 0.06

Row | Variant | self-cleavage
73 | C3U C8U G33U G40U C45U | 0.1
74 | C3U G7U C8A U9A C23U A24U C46U | 0.2
75 | C3U G5A U28A C46G | 0.14
76 | C3U G21A G36A | 0.2
77 | C3U C18A A26C | 0.06
78 | C3U G5U G36U | 0.23
79 | C3U C18G G29C G30U | 0.06
80 | C3U G35U C46A | 0.02
81 | C3U G5A C15U G17U A26G G29C C45U | 0.09
82 | C3U G7A A11G G44A | 0
83 | C3U C15G G30C C37A | 0.02
84 | C3U U9A G22A C42U | 0.43
85 | C3U G17A A39G | 0.06
86 | C3U C13G G21U | 0.08
87 | C3U G21U C42G U43G | 0.07
88 | C3U G7U C13U A14C G30A U32G G33U | 0.06
89 | C3U G17C G21U U38G | 0.01
90 | C3U C13U U20C A39C | 0.08
91 | C3U G19A C31A | 0.12
92 | C3U G30U C31U U34G | 0
93 | C3U C13A A25C | 0.04
94 | C3U C10A A16C A39C | 0.01
95 | C3U G27A G35A | 0.18
96 | C3U G29C U43C | 0.03

Row | Variant | self-cleavage
97 | C3U G5A G33U | 0.02
98 | C3U C8G U20G | 0.15
99 | C3U C8U A12U G21A U28A A41U | 0.27
100 | C3U C15U C46A | 0.29
101 | C3U G19A A26U | 0.24
102 | C3U G5U C45U | 0.76
103 | C3U G7C G22U | 0.03
104 | C3U G22U G36C | 0.03
105 | C3U G19A U32A | 0.06
106 | C3U U9C C13G C37G C45U | 0.01
107 | C3U G27C G44U | 0.15
108 | C3U G33A A41G | 0.09
109 | C3U C8G U32A C42G U43A | 0.2
110 | C3U C18G C23A C46U | 0.05
111 | C3U C10U G19U U43G | 0.01
112 | C3U C13U C42U G44C C46A | 0.03
113 | C3U G5U A14U | 0.38
114 | C3U C23U A25G C37U G44U | 0.15
115 | C3U G40A C45U | 0.66
116 | C3U G30A G33U | 0.37
117 | C3U G33A U38A | 0.14
118 | C3U C15U G36C C46A | 0.02
119 | C3U C10A G19U G33U | 0.03
120 | C3U G5A C8U A11C A14G C42U U43C | 0

Row | Variant | self-cleavage
121 | C3U G22U G40A | 0.23
122 | C3U G7U U9C A11G A14C C31U | 0.01
123 | C3U C8U U32C G44A | 0.53
124 | C3U G5U C10A A24C A25G G44C | 0.01
125 | C3U G29A G36A C42U | 0.25
126 | C3U G29A G33A C37A U43A | 0.04
127 | C3U U9G A11C G33A G36C C37G G44C | 0
128 | C3U G7U A16U G27C U28C | 0.08
129 | C3U C13U G19A | 0.28
130 | C3U G5A C10U C15A A16U A26G G40C | 0.1
131 | C3U C8U G21A G22C U34C | 0.09
132 | C3U C10A G17C G30A | 0.04
133 | C3U U9C G33C G36U G40A | 0.04
134 | C3U G7A G22A | 0.04
135 | C3U C31U G36A | 0
136 | C3U G5C G17C | 0.07
137 | C3U C8G A16U | 0.09
138 | C3U C8G U34A | 0.05
139 | C3U C13A U34G | 0.04
140 | C3U G17C C37U A39C | 0.1
141 | C3U U9A U20G G35A | 0.48
142 | C3U G22A G29U | 1.14
143 | C3U G22U A26G C42U | 0.52
144 | C3U C10G A12C G27U | 0.04

Row | Variant | self-cleavage
145 | C3U G30A U38A | 0.8
146 | C3U C10U U32A U34A | 0.04
147 | C3U C8U U9C G17A | 0.05
148 | C3U G7U C31A A41C C46G | 0.01
149 | C3U C18A G22C G27A A39C | 0.85
150 | C3U G7U A11U A16U G17U U32A | 0.01
151 | C3U G5A G29U | 0.33
152 | C3U G5U G17C U20C | 0.03
153 | C3U G17U C18U | 0.09
154 | C3U G27A G36A A39C | 0.05
155 | C3U C10A G21C G29U U32C A39C | 0.02
156 | C3U C18U C42G | 0.04
157 | C3U C8G A24U C37G | 0.09
158 | C3U G33C G35A | 0
159 | C3U G33A U38C C45U | 0.08
160 | C3U G21U A24C G35C G36A | 0.01
161 | C3U G29C G40C | 0.15
162 | C3U G29C G40U | 0
163 | C3U C13A G30C C31G G33C C37U | 0.03
164 | C3U C15A G40A C46A | 0.08
165 | C3U C15A A25U | 0.11
166 | C3U G19A U34G | 0.03
167 | C3U C15U C31G C45G | 0.04
